Results are given in words; binding and its absence hold for the method and conditions named. In cells and extracts the contact can be indirect. Some entries that bind do so weakly or less than the wild type. For some assays here: Sequences can lack the tags named with a protein.
What was measured:
Assay in all cases: co-IP; FLAG-tagged bait immunoprecipitated with anti-FLAG M2 agarose beads overnight at 4 °C from RIPA lysates of transfected HEK-293 cells; blots for GFP or HA; cells treated with dopamine (10 μM), quinpirole (100 nM) or isoproterenol (10 μM) for 5 min and washed/rechallenged, or with 10 ng/mL EGF (5 or 20 min, or washed/rechallenged)
[1] = target: FLAG-tagged K149C-D2R (UniProt P14416)
[2] = target: FLAG-tagged C147K-D3R (UniProt P35462)
[3] = target: FLAG-tagged WT-D3R (UniProt P35462)
[4] = target: FLAG-tagged WT-D2R (UniProt P14416)
[5] = target: T1, FLAG-tagged D4R (UniProt P21917)
T1 sequence: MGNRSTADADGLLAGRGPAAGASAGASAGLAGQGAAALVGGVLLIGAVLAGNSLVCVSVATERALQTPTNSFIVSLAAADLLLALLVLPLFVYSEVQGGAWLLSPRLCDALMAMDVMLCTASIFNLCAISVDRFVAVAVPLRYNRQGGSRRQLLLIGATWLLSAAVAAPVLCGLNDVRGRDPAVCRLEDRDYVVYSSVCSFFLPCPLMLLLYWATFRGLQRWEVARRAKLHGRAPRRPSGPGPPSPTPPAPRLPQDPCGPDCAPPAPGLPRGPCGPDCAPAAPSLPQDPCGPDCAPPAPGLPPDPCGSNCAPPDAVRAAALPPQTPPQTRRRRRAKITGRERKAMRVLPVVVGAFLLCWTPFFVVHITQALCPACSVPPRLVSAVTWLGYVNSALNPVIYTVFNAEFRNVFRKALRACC

Substance: EGFR-GFP (from UniProt P00533 25-1210) (receptor)
- binding [1]: binds
- binding [2]: no binding
- binding [3]: binds
- binding [4]: no binding
- binding [5]: no binding
